Out of some 2,200 compounds screened, fewer than 10 were called active. The list shows a part of the results. The source made no clear call on entries shown without one.
target: GTPase KRas (Homo sapiens) (UniProt P01116); assay: Cysteine mutants labelled by reactive fragments (mass read-out) (AID 2202238); parameters: protein at 5 µM with 500 µM competing thiol for 1.5 h; conditions: KRAS G12D cysteine mutants, disulfide tethering, MALDI-TOF labeling; stronger effect = higher value; H27C mutant labeling; fragment at 500 µM
UniProt P01116, sequence (P01116 whole entry, looked up, the tested form may be a part): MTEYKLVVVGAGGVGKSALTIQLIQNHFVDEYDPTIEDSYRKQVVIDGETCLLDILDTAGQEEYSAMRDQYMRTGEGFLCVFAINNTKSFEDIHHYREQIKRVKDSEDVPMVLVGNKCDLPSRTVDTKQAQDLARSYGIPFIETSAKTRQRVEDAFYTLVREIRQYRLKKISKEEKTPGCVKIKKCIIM

SMILES | percent labeling
Cc1nn(C)cc1C1CCCN1C(=O)CCS (stereo unspecified) | 24.4%
COc1cccc(Br)c1C(=O)NCCS | 37.3%
Cc1cn(C(C)(C)C(=O)NCCS)nc1C(F)(F)F | 30%
COc1ccc(Br)c2c1C(NC(=O)CCS)CC2 (stereo unspecified) | 43%
Cn1ncc(C(F)(F)F)c1CNC(=O)CCS | 35.5%
Cc1nc2cc[nH]n2c(=O)c1CC(=O)NCCS | 27.2%
Cc1cc(C(=O)NCCS)c2nccc(C)c2c1 | 28.4%
O=C(NCCS)c1cc2ccc(F)cc2s1 | 26.2%
Cc1ccc(C)n1-c1sccc1C(=O)NCCS | 7.7%
CCc1nn(CC(=O)NCCS)c(=O)c2cc3sccc3n12 | 16.3%
CN(Cc1cc(F)ccc1Oc1ccc(F)cc1Cl)C(=O)CCS | 29.5%
Cc1nc2nc(C(F)(F)F)nn2c(C)c1CCC(=O)NCCS | 29.2%
O=C(NCCS)C1CCC(N2CCOCC2)CC1 (stereo unspecified) | 41%
CC(=O)Nc1c(Cl)ccc(C(=O)NCCS)c1Cl | 40%
O=C(CCS)NCc1ccc(-c2cccnc2)c(F)c1 | 52.6%
O=C(Nc1cccc2c1CCCN2C(=O)CCS)NC1CCCCC1 | 19.9%
O=C(CCS)Nc1ccc(Cl)cc1-c1nn[nH]n1 | 32.3%
O=C(CCS)Nc1ccc(-c2n[nH]c3c2CCCC3)cc1 | 36.1%
O=C(CCS)Nc1cccnc1OCC(F)(F)F | 33.6%
Cn1cc(N2CC(C(=O)NCCS)CC2=O)cn1 (stereo unspecified) | 27.4%
CCCC(CC1CCCCC1)C(=O)NCCS (stereo unspecified) | 20.5%
Cn1c(C2CC2)nn(CC(=O)NCCS)c1=O | 22.2%
CN(C)C1(C(=O)NCCS)CCOc2ccccc21 (stereo unspecified) | 34.3%
Cc1ncc(CNC(=O)CCS)n1-c1ccccc1 | 40.1%

SMILES | percent labeling
O=C(CC1c2ccccc2Oc2ccccc21)NCCS | 23.1%
O=C(CCS)N(Cc1ccco1)Cc1ccco1 | 18.4%
O=C(CCS)N1CCC(c2nc(-c3ccncc3)cs2)CC1 | 45%
COCCc1noc(CC2CCN(C(=O)CCS)CC2)n1 | 41%
Cc1csc(CC2CCCN2C(=O)CCS)n1 (stereo unspecified) | 41.7%
O=C(CCS)NCCC1(O)C(=O)Nc2ccccc21 (stereo unspecified) | 44.1%
O=C(CCS)N1CCC(COc2ccc(C(F)(F)F)cn2)CC1 | 25%
O=C(CCS)NCC(=O)N1CCOc2ccccc21 | 44.1%
O=C(CCS)NC1CCN(c2ccc(Cl)c(Cl)c2)C1=O (stereo unspecified) | 37.6%
O=C(CCS)Nc1nc2ccc3scnc3c2s1 | 43.8%
CC1Oc2c(cccc2C(=O)NCCS)NC1=O (stereo unspecified) | 50.1%
O=C(NCCS)C1COc2ccc(F)cc2C1 (stereo unspecified) | 23.1%
O=C(NCCS)c1nnn(-c2cccc(Br)c2)c1C(F)(F)F | 7.9%
COc1cccc(-c2nc(C(=O)NCCS)c(C)[nH]2)c1 | 37.1%
O=C(Cc1cc2[nH]cnc2cc1Br)NCCS | 53%
O=C(NCCS)c1coc(C#Cc2ccccc2)c1 | 12.8%
Cc1c(C(=O)NCCS)nnn1-c1ccc2c(c1)OCCO2 | 25.9%
Cc1nc(C(=O)NCCS)nn1-c1ccc(Cl)cc1 | 33.4%
Cc1ccc(N2CCCC2)cc1NC(=O)CCS | 21.3%
Cc1cc(C)nc(-n2[nH]c(C(=O)NCCS)c(CCO)c2=O)n1 | 8.7%
Cn1c(=O)n(C)c2cc(C(=O)NCCS)c(Br)cc21 | 39.9%
CN(C)C(C(=O)NCCS)c1cc(Br)cs1 (stereo unspecified) | 40.5%
Cc1nn(C2CCS(=O)(=O)C2)c(C)c1NC(=O)CCS (stereo unspecified) | 44.5%
O=C(NCCS)c1cccc(Oc2ccc(Cl)cc2)c1 | 24.3%

SMILES | percent labeling
CC(C)C1N(C(=O)CCS)CC12CCS(=O)(=O)CC2 (stereo unspecified) | 44.7%
Cc1c(C(=O)NCCS)sc2ncn(C)c(=O)c12 | 56.9%
O=C(NCCS)c1c(C(F)(F)F)nc2ccccn12 | 40.8%
O=C(CCS)Nc1ccc(-c2nnc3n2CCC3)cc1 | 44.2%
CCC(C)c1ccccc1N1CC(C(=O)NCCS)CC1=O (stereo unspecified) | 46.2%
Cc1ccc(C)c(C(C(=O)NCCS)C(C)C)c1 (stereo unspecified) | 21.1%
CCN(Cc1c(CO)cnc(C)c1O)C(=O)CCS | 37.5%
O=C(CN1C(=O)NC2(CCCc3ccccc32)C1=O)NCCS (stereo unspecified) | 28.5%
CN(Cc1ncc(Cl)n1C)C(=O)CCS | 34.7%
O=C(CCS)N1CCc2nc(C3CCCCC3)[nH]c2C1 | 37.3%
O=C(CCS)N1CCC(c2csc(-c3ccc(Cl)cc3)n2)CC1 | 28.8%
O=C(CCC(=O)N1CCc2sccc2C1)NCCS | 22.9%
O=C(NCCS)C1CCN(CC(F)(F)F)C1 (stereo unspecified) | 27.1%
N#Cc1ccccc1Oc1ccc(C(=O)NCCS)cc1Cl | 37.8%
O=C(CCS)Nc1nn(Cc2ccc(F)cc2)cc1Cl | 36.5%
CCC(C)(NC(=O)CCS)c1nc2c(c(=O)[nH]1)CCCC2 (stereo unspecified) | 35.5%
O=C(CCS)N1CCC(c2nc(-c3ccccc3)no2)CC1 | 37.9%
O=C(CCc1ccc2c(c1)NC(=O)CO2)NCCS | 42.4%
O=C(CCS)N1CCn2c(cc3ccccc32)C1 | 6.6%
Cn1cc(C2CN(C(=O)CCS)CCO2)cn1 (stereo unspecified) | 36.5%
CC(CC(N)=O)c1ccc(NC(=O)CCS)cc1 (stereo unspecified) | 33.8%
O=C(NCCS)C1(C(F)(F)F)CC=CCO1 (stereo unspecified) | 28.7%
O=C(CCS)Nc1cc2ccccc2nc1Cl | 25.1%
O=C(NCCS)c1cc2c(=O)[nH]c3ccccc3c2s1 | 38.8%

SMILES | percent labeling
O=C(CCS)NCCn1ccc(=O)[nH]c1=O | 37.8%
O=C(CCS)NCc1ccc(Oc2cccnc2)c(F)c1 | 52.7%
CCn1c(=O)[nH]c2cc(C(=O)NCCS)ccc2c1=O | 28.9%
Cc1c(C(=O)NCCS)nnn1-c1cccc2c1CCN(C)C2 | 53.6%
O=C(CCS)Nc1c(F)cccc1-n1cccn1 | 31.2%
CC1(C)CCCN1C1CCN(C(=O)CCS)CC1 | 40.4%
Cc1oc(-c2cccs2)nc1C(=O)NCCS | 26.1%
O=C(CCS)N1CCC(Oc2cncc(Cl)c2)CC1 | 51.9%
O=C(CCN1C(=O)CCc2cc(F)ccc21)NCCS | 29.2%
Cc1ccc(OCc2cccc(C(=O)NCCS)c2)cn1 | 34.8%
Cn1cc(N2CCCC(N3CCN(C(=O)CCS)CC3)C2=O)cn1 (stereo unspecified) | 35.2%
CN1CCC(c2cccc(NC(=O)CCS)c2)CC1 | 63.4%
CC(C(=O)N(C)CC(=O)NCCS)n1cccn1 (stereo unspecified) | 27.3%
CCNC(=O)c1cccc(NC(=O)CCS)c1 | 40.1%
O=C(NCCS)C1(O)CCC(C(F)(F)F)CC1 (stereo unspecified) | 35.4%
O=C(CCS)Nc1ccc2c(c1)CCC(=O)N2 | 47.6%
O=C(CCS)Nc1cccc(Oc2ccccc2)c1 | 28.7%
O=C(CCS)NCCCC(=O)Nc1cn[nH]c1 | 32.4%
CC(C)(C(=O)NCCS)c1ccc(C(F)(F)F)cc1 | 26.7%
O=C(CCS)Nc1ccc(F)cc1Cn1ccsc1=O | 47%
Cc1nn(-c2ccccc2)c(C)c1C(=O)NCCS | 44.6%
O=C(Nc1sccc1C(=O)NCCS)c1ccc2c(c1)CCC2 | 10.8%
O=C(CCS)NC1(c2ccc(Br)cc2)COC1 | 40.7%
COc1cccc(-c2cc(CN(C)C(=O)CCS)[nH]n2)c1 | 42.2%

SMILES | percent labeling
O=C(NCCS)c1ccc2c(c1)[nH]c(=O)n2CC(F)(F)F | 49.4%
Cc1nc(-c2cccnc2)[nH]c(=O)c1CC(=O)NCCS | 40.5%
O=C(CCS)Nc1ccc2c(c1)C(=O)NCC2 | 47.5%
Cc1nc2cc(=O)[nH]n2c(C)c1CNC(=O)CCS | 27.3%
O=C(CCS)NC1CCC(O)(C(F)(F)F)CC1 (stereo unspecified) | 31.2%
O=C(CC1(C(=O)NCCS)CCCC1)N1CCOCC1 | 29.1%
O=C(NCCS)c1csc(-c2cnccn2)n1 | 55.1%
O=C(CCS)Nc1ccccc1Oc1ncc(Cl)cc1Cl | 30.4%
O=C(NC1(C(=O)NCCS)CCCC1)c1ccc2[nH]ncc2c1 | 43.5%
Cc1ccc(N2CCCC2=O)c(C(=O)NCCS)c1 | 26.6%
O=C(CCS)Nc1cnn2cc(Br)cnc12 | 61.3%
Cc1c(CN2CCSCC2)cccc1NC(=O)CCS | 48.2%
CN1Cc2ccc(NC(=O)CCS)cc2C1=O | 44.8%
Cn1c2c(ccc1=O)C(NC(=O)CCS)CCC2 (stereo unspecified) | 31.4%
CN(CCO)C1(CNC(=O)CCS)CCCCC1 | 40.6%
O=C(CNC(=O)N1CCc2ccccc2C1)NCCS | 29.6%
Cc1nc2nnnn2c(C)c1CCC(=O)NCCS | 34.7%
O=C(NCCS)c1ccc2ccccc2c1O | 20.9%
O=C(CCS)Nc1ccn(-c2ncccc2C(F)(F)F)n1 | 42.1%
Cc1ccc2[nH]cc(CCC(=O)NCCS)c2c1 | 19.5%
CC(C)(C)CCC1(O)CC(C(=O)NCCS)C1 (stereo unspecified) | 20.3%
COc1ccc2onc(CC(=O)NCCS)c2c1 | 28.4%
Cc1nc2c3ccccc3nn2c(C)c1CCC(=O)NCCS | 19.1%
O=C(CCS)N1CCC(n2ccnn2)CC1 | 39.2%

SMILES | percent labeling
O=C(CCS)NCCn1cnc2ccccc2c1=O | 29.8%
Cc1sc(-n2cccc2)c(C(=O)NCCS)c1C | 27.5%
O=C(CCS)NCc1ncc2c(n1)CCOC2 | 9%
O=C(CCS)N1CCC2=C(C=NS(=O)(=O)N2)C1 | 18.5%
CN(C)CC1COC2(CCCC2)CN1C(=O)CCS (stereo unspecified) | 44.8%
CCc1cc(C(=O)NCCS)ccc1Br | 28.6%
O=C(NCCS)c1cc2scc(Br)c2[nH]1 | 26.5%
Cc1ccn(-c2ccccc2NC(=O)CCS)n1 | 27%
Cc1cc(-n2cccc2)ccc1C(=O)NCCS | 35.3%
CCCn1c(C(=O)NCCS)cc2ccccc21 | 18.5%
O=C(CCS)NCC(=O)NC1CCC(O)CC1 (stereo unspecified) | 24%
O=C(CC1CC(=O)Nc2ccccc21)NCCS (stereo unspecified) | 32.4%
Cc1onc(-c2ccsc2)c1C(=O)NCCS | 28.4%
O=C(CCc1ncc[nH]1)NCCS | 30.8%
CC1CCC(C(=O)NCCS)C2C(=O)N(c3ccccc3)C(=O)C12 (stereo unspecified) | 31%
O=C(NCCS)C1CCC(c2ccccc2)CC1 (stereo unspecified) | 18.7%
O=C(CCS)NC1CC(N2CCC(C(F)(F)F)CC2)C1 (stereo unspecified) | 48.3%
Cc1ccc(C(=O)NCCS)cc1N1C(=O)C2CCCCC2C1=O (stereo unspecified) | 26.5%
O=C(CCS)N1CCC(c2nn(-c3ccccc3)cc2F)CC1 | 37.4%
Cn1nc2c(c1NC(=O)CCS)CCCC2 | 36.5%
Cc1c(Br)ccc2nc(C(=O)NCCS)cn12 | 16.5%

Reference: PubChem BioAssay AID2202238 (Ras Initiative Chemistry Research Team, Frederick National …, 2025)
